# Some of the results follow.
# B1: MGL1 (Mus musculus), P49300 (protein)
# chain: MIYENLQNSRIEEKTQEPGKAPSQSFLWRILSWTHLLLFSLGLSLLLLVVVSVIGSQNSQLRRDLGTLRATLDNTTSKIKAEFQSLDSRADSFEKGISSLKVDVEDHRQELQAGRDLSQKVTSLESTVEKREQALKTDLSDLTDHVQQLRKDLKALTCQLANLKNNGSEVACCPLHWTEHEGSCYWFSESEKSWPEADKYCRLENSHLVVVNSLEEQNFLQNRLANVVSWIGLTDQNGPWRWVDGTDFEKGFKNWAPLQPDNWFGHGLGGGEDCAHITTGGPWNDDVCQRTFRWICEMKLAKES
# Key:
# Test in all cases: glycan array binding signal (z-score within array); higher = stronger binding
# Conditions in all cases: glycan notation: IUPAC condensed, linker removed
# [1] = biological target: Gal(b1-3)[Fuc(a1-4)]GlcNAc(b1-2)Man(a1-3)[Gal(b1-3)[Fuc(a1-4)]GlcNAc(b1-2)Man(a1-6)]Man(b1-4)GlcNAc(b1-4)[Fuc(a1-6)]GlcNAc
# Method in brief: (§1)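 The binding signal is a Z-score computed within each array and averaged over linkers. Arrays of the same protein sequence at different concentrations or buffers were also averaged together. Data originate from 3228 arrays in the Consortium for Functional Glycomics database, kept only where the protein sequence was available.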
# [2] = biological target: Gal(b1-3)[Fuc(a1-4)]GlcNAc(b1-3)Gal(b1-3)[Fuc(a1-4)]GlcNAc
# Method in brief: as §1
# [3] = biological target: Gal(b1-3)[Fuc(a1-4)]GlcNAc(b1-3)Gal(b1-4)GlcNAc
# Method in brief: as §1
# [4] = biological target: Gal(b1-3)[Fuc(a1-4)]GlcNAc(b1-3)Gal(b1-4)[Fuc(a1-3)]GlcNAc
# Method in brief: as §1
# [5] = biological target: Gal(b1-3)[Fuc(a1-4)]GlcNAc(b1-6)GalNAc
# Method in brief: as §1
# [6] = biological target: Gal(b1-3)[GlcNAc(b1-6)]GalNAc
# Method in brief: as §1
# [7] = biological target: Gal(b1-3)[GlcNAc(b1-6)]GlcNAc
# Method in brief: as §1
# [8] = biological target: Gal(b1-3)[Neu5Ac(a2-6)]GalNAc
# Method in brief: as §1
# [9] = biological target: Gal(b1-3)[Neu5Ac(a2-6)]GlcNAc
# Method in brief: as §1
# [10] = biological target: Gal(b1-3)[Neu5Ac(a2-6)]GlcNAc(a1-4)Gal(b1-4)Glc
# Method in brief: as §1
# [11] = biological target: Gal(b1-3)[Neu5Ac(a2-6)]GlcNAc(b1-4)Gal(b1-4)Glc
# Method in brief: as §1
# [12] = biological target: Gal(b1-3)[Neu5Ac(b2-6)]GalNAc
# Method in brief: as §1
# [13] = biological target: Gal(b1-3)[Neu5Ac(b2-6)]GlcNAc
# Method in brief: as §1
# Gal(b1-4)Gal = biological target: Gal(b1-4)Gal
# Method in brief: as §1
# [14] = biological target: Gal(b1-4)GalNAc(a1-3)[Fuc(a1-2)]Gal(b1-4)GlcNAc
# Method in brief: as §1
# [15] = biological target: Gal(b1-4)GalNAc(b1-3)[Fuc(a1-2)]Gal(b1-4)GlcNAc
# Method in brief: as §1
# Gal(b1-4)Glc = biological target: Gal(b1-4)Glc
# Method in brief: as §1
# Gal(b1-4)Glc6S = biological target: Gal(b1-4)Glc6S
# Method in brief: as §1
# Gal(b1-4)GlcNAc = biological target: Gal(b1-4)GlcNAc
# Method in brief: as §1
# [16] = biological target: Gal(b1-4)GlcNAc(a1-6)Gal(b1-4)GlcNAc
# Method in brief: as §1
# Gal(b1-4)GlcNAc(b1-2)Man = biological target: Gal(b1-4)GlcNAc(b1-2)Man
# Method in brief: as §1
# [17] = biological target: Gal(b1-4)GlcNAc(b1-2)Man(a1-3)Man(b1-4)GlcNAc(b1-4)GlcNAc
# Method in brief: as §1
# [18] = biological target: Gal(b1-4)GlcNAc(b1-2)Man(a1-3)[Gal(b1-4)GlcNAc(b1-2)Man(a1-6)]Man(b1-4)GlcNAc(b1-4)GlcNAc
# Method in brief: as §1
# [19] = biological target: Gal(b1-4)GlcNAc(b1-2)Man(a1-3)[Gal(b1-4)GlcNAc(b1-2)Man(a1-6)]Man(b1-4)GlcNAc(b1-4)[Fuc(a1-6)]GlcNAc
# Method in brief: as §1
# [20] = biological target: Gal(b1-4)GlcNAc(b1-2)Man(a1-3)[Gal(b1-4)GlcNAc(b1-2)Man(a1-6)][Gal(b1-4)GlcNAc(b1-4)]Man(b1-4)GlcNAc(b1-4)[Fuc(a1-6)]GlcNAc
# Method in brief: as §1
# [21] = biological target: Gal(b1-4)GlcNAc(b1-2)Man(a1-3)[Gal(b1-4)GlcNAc(b1-2)Man(a1-6)][GlcNAc(b1-4)]Man(b1-4)GlcNAc(b1-4)[Fuc(a1-6)]GlcNAc
# Method in brief: as §1
# [22] = biological target: Gal(b1-4)GlcNAc(b1-2)Man(a1-3)[GlcNAc(b1-2)Man(a1-6)]Man(b1-4)GlcNAc(b1-4)GlcNAc
# Method in brief: as §1
# [23] = biological target: Gal(b1-4)GlcNAc(b1-2)Man(a1-3)[GlcNAc(b1-4)][Gal(b1-4)GlcNAc(b1-2)Man(a1-6)]Man(b1-4)GlcNAc(b1-4)GlcNAc
# Method in brief: as §1
# [24] = biological target: Gal(b1-4)GlcNAc(b1-2)Man(a1-3)[Man(a1-6)]Man(b1-4)GlcNAc(b1-4)GlcNAc
# Method in brief: as §1
# [25] = biological target: Gal(b1-4)GlcNAc(b1-2)Man(a1-6)Man(b1-4)GlcNAc(b1-4)GlcNAc
# Method in brief: as §1
# [26] = biological target: Gal(b1-4)GlcNAc(b1-2)Man(a1-6)[GlcNAc(b1-2)Man(a1-3)]Man(b1-4)GlcNAc(b1-4)GlcNAc
# Method in brief: as §1
# [27] = biological target: Gal(b1-4)GlcNAc(b1-2)Man(a1-6)[Man(a1-3)]Man(b1-4)GlcNAc(b1-4)GlcNAc
# Method in brief: as §1
# [28] = biological target: Gal(b1-4)GlcNAc(b1-2)[Gal(b1-4)GlcNAc(b1-4)]Man(a1-3)[Gal(b1-4)GlcNAc(b1-2)Man(a1-6)]Man(b1-4)GlcNAc(b1-4)GlcNAc
# Method in brief: as §1
# [29] = biological target: Gal(b1-4)GlcNAc(b1-2)[Gal(b1-4)GlcNAc(b1-4)]Man(a1-3)[Gal(b1-4)GlcNAc(b1-2)[Gal(b1-4)GlcNAc(b1-6)]Man(a1-6)]Man(b1-4)GlcNAc(b1-4)GlcNAc
# Method in brief: as §1
# [30] = biological target: Gal(b1-4)GlcNAc(b1-2)[Gal(b1-4)GlcNAc(b1-4)]Man(a1-3)[GlcNAc(b1-4)][Gal(b1-4)GlcNAc(b1-2)Man(a1-6)]Man(b1-4)GlcNAc(b1-4)GlcNAc
# Method in brief: as §1
# [31] = biological target: Gal(b1-4)GlcNAc(b1-2)[Gal(b1-4)GlcNAc(b1-4)]Man(a1-3)[GlcNAc(b1-4)][Gal(b1-4)GlcNAc(b1-2)[Gal(b1-4)GlcNAc(b1-6)]Man(a1-6)]Man(b1-4)GlcNAc(b1-4)GlcNAc
# Method in brief: as §1
# [32] = biological target: Gal(b1-4)GlcNAc(b1-2)[Gal(b1-4)GlcNAc(b1-6)]Man(a1-6)[Gal(b1-4)GlcNAc(b1-2)Man(a1-3)]Man(b1-4)GlcNAc(b1-4)GlcNAc
# Method in brief: as §1
# [33] = biological target: Gal(b1-4)GlcNAc(b1-2)[Gal(b1-4)GlcNAc(b1-6)]Man(a1-6)[Gal(b1-4)GlcNAc(b1-2)Man(a1-3)]Man(b1-4)GlcNAc(b1-4)[Fuc(a1-6)]GlcNAc
# Method in brief: as §1
binder,measurement,setting,value
B1,glycan array binding signal (z-score),[1],-0.121
same,glycan array binding signal (z-score),[2],-0.017
same,glycan array binding signal (z-score),[3],-0.08
same,glycan array binding signal (z-score),[4],1.01
same,glycan array binding signal (z-score),[5],-0.239
same,glycan array binding signal (z-score),[6],0.109
same,glycan array binding signal (z-score),[7],-0.138
same,glycan array binding signal (z-score),[8],-0.361
same,glycan array binding signal (z-score),[9],-0.137
same,glycan array binding signal (z-score),[10],-0.125
same,glycan array binding signal (z-score),[11],0.273
same,glycan array binding signal (z-score),[12],0.779
same,glycan array binding signal (z-score),[13],-0.162
same,glycan array binding signal (z-score),Gal(b1-4)Gal,-0.627
same,glycan array binding signal (z-score),[14],0.018
same,glycan array binding signal (z-score),[15],-0.234
same,glycan array binding signal (z-score),Gal(b1-4)Glc,-0.136
same,glycan array binding signal (z-score),Gal(b1-4)Glc6S,-0.462
same,glycan array binding signal (z-score),Gal(b1-4)GlcNAc,-0.356
same,glycan array binding signal (z-score),[16],0.768
same,glycan array binding signal (z-score),Gal(b1-4)GlcNAc(b1-2)Man,-0.586
same,glycan array binding signal (z-score),[17],-0.403
same,glycan array binding signal (z-score),[18],-0.02
same,glycan array binding signal (z-score),[19],0.099
same,glycan array binding signal (z-score),[20],3.48
same,glycan array binding signal (z-score),[21],-0.015
same,glycan array binding signal (z-score),[22],-0.652
same,glycan array binding signal (z-score),[23],0.239
same,glycan array binding signal (z-score),[24],0.201
same,glycan array binding signal (z-score),[25],-0.551
same,glycan array binding signal (z-score),[26],-0.37
same,glycan array binding signal (z-score),[27],-0.449
same,glycan array binding signal (z-score),[28],-0.595
same,glycan array binding signal (z-score),[29],-0.108
same,glycan array binding signal (z-score),[30],-0.482
same,glycan array binding signal (z-score),[31],1.53
same,glycan array binding signal (z-score),[32],0.768
same,glycan array binding signal (z-score),[33],0.123

# — the supplement of paper PMC8728848
